Reference: the supplement of paper PMC11417369
This is one part of the list.

tested on: PfAP2-HC AP2 domain (GST-tagged); test: gcPBM binding intensity (ln(normalized median fluorescence intensity)); higher = stronger DNA binding
Method in brief: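 Binding intensity is defined as the maximum Masliner-normalised natural-log median intensity across replicate spots for either probe orientation. It was measured on an Agilent 4 × 180k array of primer-extended double-stranded 36-bp intergenic genomic probes and negative controls, to which GST-tagged P. falciparum DNA-binding domains made in E. coli were applied for 1 h in 1× PBS with 1% milk, 0.2 mg/ml BSA, 0.5% salmon testes DNA and 0.03% Triton X-100. Detection was by Alexa488 anti-GST antibody and scanning at 488 nm.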

Sequence | gcPBM binding intensity (ln)
TTCTTAAAAAATCAAACACACATATATAAATACATA [CACACA_site5301] | 9.83
AAAGACGTTTATAAATGTACATACACTTTAAAAGTT [XGTACX_site8753] | 9.6
CCCCATTTATCTTAAGCATGCCATGGTTTTAGATAT [TGCATGCA_site24] | 9.76
AATTATTTTAGAAACACACAAATTAGAAAAAACATA [CACACA_site7673] | 9.79
GTATATATCTCAGAGCATAATAGTATAATTCGGTCA [CACACA_negctrl_site876] | 9.52
AATAACATTATTTTATGTACACATGAAAAATAAAAT [XGTACX_site4657] | 9.68
TGATATTTCATCATAGTGCAATATGGCATATAAATA [GTGCAC_site9433] | 9.51
AATATCAAAATAACATGTACATGTTATATTTTATTT [XGTACX_site5891] | 9.73
TGTAATAAACTACTTTTTTTTTTTTTTTTTTTTTTT [CACACA_negctrl_site1021] | 9.43
AATATATATATAAATAGTACATATAAAGAGAATTTT [XGTACX_site3168] | 9.84
CAGAAATATTCTTATACACACTGTTCTTATATTCCT [CACACA_site4318] | 9.82
ATTAAAACAAAATGTACACACATATAATTTAATGAC [CACACA_site878] | 10.2
TTTATCTTTTTTTGTTGTACAGATGTTTATATTTTA [XGTACX_site4065] | 9.82
TATTTTTTTAAAATAGGTACACAATCAAACATTTAT [XGTACX_site8785] | 9.42
ACCTCATAATATTTAACACACAAAATTATCTGTATG [CACACA_site5015] | 9.9
TTATAGACATATATAGGTACACATATTTTCAATCCC [XGTACX_site8230] | 9.63
ATTTATTAATCATATACACACATATATTTGTATTTA [CACACA_site1336] | 9.84
TTTATATAATATTCTACACACCAACAACAAACATAT [CACACA_site4478] | 10.2
ATATATATATATAATACACACATAAATGAATATATA [CACACA_site316] | 9.93

Sequence | gcPBM binding intensity (ln)
GCATTGATCAAACATACACACATGGTTAATAAAAAT [CACACA_site2085] | 9.83
GTGATTTCTATGAATTGTACTTAAATATAGTTATAT [XGTACX_site231] | 9.67
CGTCCAAAATATCCTTCACACACGAACAGTTTCATT [CACACA_site2729] | 10.1
TTTAAATAAAAATGGAGTACTCTAAAAAAAAAAAAA [XGTACX_site1233] | 9.37
CTATAATATTATAACAGTACATAATATTATATATAT [XGTACX_site1414] | 9.44
ATATGAAAAACTTCATGTACTTATTATAAAATATAA [XGTACX_site2725] | 9.49
TGAAATGAAAGAACAGCACACATATATATTATATAT [CACACA_site8613] | 9.92
TATATTTTTTAAAAAAGTACAAAGTAATTATTGATT [XGTACX_site2420] | 9.56
GTAGTACATTCTAGAATACACACCTATATATATATA [CACACA_site522] | 9.75
ATTCTAATTTTATGAAACGATTATTTTGAATTCATT [XGTACX_negctrl_site578] | 9.6
ATTTTTAATTTTTTCACACATATATTTAAAATAAAA [CACACA_site4799] | 9.38
ATAAAAAAAAATATATGTACATATATAAATTGATAT [XGTACX_site7409] | 9.87
CTTTTTTTTTTGTATTGTACTTTATTTTTACATCGT [XGTACX_site2918] | 9.74
ATGTGCACATGTAGAAGTACTTTTTCTTAAAATACT [XGTACX_site8341] | 10
TATGTTTTATATAAGATGCACTTTTGTTATGCTTCA | 9.61
ATTTATGTTATTGTATGTACACAATATAATGTTATT [XGTACX_site5657] | 9.84
ATTCTACACGCACATACACACATATAAATATAAATA [CACACA_site7582] | 9.94
AAAAAAAAATATATATATATATATATATAATAAAAA [CACACA_negctrl_site639] | 9.81
AAAAAAAAAAAATGTGCACACGCGTACAGACAAAAA [CACACA_site2005] | 10.3

Sequence | gcPBM binding intensity (ln)
TAAAAAGTACATTATTCATGGCCTATTACATTTTTT [GTGCAC_negctrl_site282] | 9.7
ATAATATATATGAAATGTACATAAATTTAATGCGAC [XGTACX_site5394] | 10.2
ACACAAAAATAGTTTTTTATATTGTTAACCTTATAT [XGTACX_negctrl_site123] | 9.71
ATATTTTACATATTTGCACACATATATTTAAATACA [CACACA_site4628] | 10
TAAATACAAGTAAAAAGTACAGAAAAATTATATATA [XGTACX_site1758] | 9.86
TTTATTTTGTTTTCTTGTACATAAATAATTACATAT [XGTACX_site4227] | 9.86
TTTATTTGGACATATACACACTTAAATATGTTTATT [CACACA_site6021] | 9.74
AAGAGAAATGGGCACACACACACATATTATAGATAT [CACACA_site6828] | 10.5
TATAAAAAATTCAATACACACCATATATAAATATAT [CACACA_site6060] | 9.92
TATAATAATTCATAATGTACTTTTATCAAAAAAGTA [XGTACX_site6868] | 9.39
TGATTCACTATAGTAGTGCATATTATATATATATAT [GTGCAC_site9975] | 9.77
CAAATACACGGACACACACACACAAAAAAAAAAAAA [CACACA_site6385] | 11
AAATTATTGTAAAATAGTACAGTGAAACATAAAGTT [XGTACX_site589] | 9.82
AATATTTATATTTACACACACATAATACATATATGT [CACACA_site33] | 10.2
TTTTTATTCAACAAAAATATCAAACATAATTATAAA [CACACA_negctrl_site616] | 9.33
ATTTTTATGTCTTTCTATAAATCGAAAATATACATA [CACACA_negctrl_site477] | 9.47
TTCCTTTAACCCTGCACACATACATACATTTATATG [CACACA_site3953] | 10
ATATACAACTAAAGAACACACATCATTGTTCATTGG [CACACA_site3681] | 9.81
